# Values joined by “and” are separate entries in the source; they are usually repeats but may differ in a detail not shown here. Equal values may be shown once. Hit rate of the full screen: of about 360,000 compounds, about 6,000 (1.7%) were called active. Inconclusive results, whose numbers are uncertain, are shown with a selection of clear calls. Calls come from the whole dose curve; as a rule, active = well fitted cell-killing curve with a large enough effect; inconclusive = small, poorly fitted or top-dose-only effect, or effect the other way; inactive = flat fitted curve, though single readings scatter. Potencies of inconclusive entries are left out as doubtful fits.
# Assay: qHTS for induction of synthetic lethality in tumor cells producing 2HG: qHTS for the HT-1080-NT fibrosarcoma cell line;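 note: NT is the 2HG producing partner of a matched IDH1 knockdown line; nearly all actives have a fitted effect of over 55% in size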;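 for activity, negative = less viability: 0% = DMSO-treated cells and -100% = media-only wells without cells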
# Details: HT-1080-NT fibrosarcoma viability, CellTiter-Glo ATP luminescence, 48 h; activity, negative = less viability: at 46.1 µM (top of the series) unless noted
# In short: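 Fibrosarcoma NT cells, 750 per well in 5% FBS RPMI, were exposed to compound for 48 hours. Viability: CellTiter-Glo luminescence.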
# Potency is the fitted concentration of half-maximal effect; tags give direction and shape of the fitted curve.
SMILES,Potency,"activity, negative = less viability"
Clc1ccc2nc(-c3ccco3)c(Cc3ccccc3)n2c1,"inconclusive [cytotoxic, single point]",
COc1ccccc1Cc1c(C(C)(C)C)nc2ccc(C)cn12,"inconclusive [cytotoxic, single point]",
Cc1ccc(S(=O)(=O)N(C)CCCC(=O)NC(C)(C)CO)cc1,"inconclusive [rising, single point]",
CCCC(O)(c1ccc(Cl)cc1)C(CN1CCOCC1)c1ccc(Cl)cc1 (centres undefined),"inconclusive [cytotoxic, single point]",
COc1ccc(NC(=O)C2(C)CCN2Cc2ccc(OC)c3ccccc23)cc1OC (centres undefined),"inconclusive [cytotoxic, partial curve]",
O=C(Oc1c(CN2CCOCC2)cc(Cl)c2cccnc12)c1ccccc1,"inconclusive [cytotoxic, single point]",
CCn1ncc(C2=NOC(C(=O)NCc3ccccc3)C2)c1C (centres undefined),active: 2.82 µM,
CCOC(=O)Nc1ccc2c(c1)N(C(=O)OC)c1ccccc1CC2,"inconclusive [cytotoxic, single point]",
Cc1ccc2cc3c(nc2c1)OCC3,"inconclusive [rising, single point]",
CCN(CC)C(=O)/C(=C/c1cn(S(=O)(=O)N(C)C)c2ccccc12)NC(=O)c1ccc(OC)cc1,"inconclusive [cytotoxic, single point]",
O=C(NC[C@@H]1CC[C@@H](Cc2ccc(-c3ccccc3)cc2)O1)Nc1ccc(Br)cc1,"inconclusive [cytotoxic, single point]",
CCC(c1nnnn1-c1ccc2c(c1)OCCO2)N1CCN(c2ccccn2)CC1 (centres undefined),,inactive: -1.11%
Cc1cc(C(=O)NCC(c2cccs2)N2CCOCC2)ccc1[N+](=O)[O-] (centres undefined),"inconclusive [cytotoxic, single point]",
CNc1ccc(Br)cc(C(=O)/C=C/c2cc(OC)ccc2OC)c1=O,"inconclusive [cytotoxic, single point]",
Cc1ccc(S(=O)(=O)N2CCCCC2C(=O)O)s1 (centres undefined),,inactive: 3.38%
Cc1ccnn1CCC(=O)O,"inconclusive [rising, single point]",
O=c1c2c3c(sc2nc(NCCO)n1-c1ccccc1)CCCC3,,inconclusive: -30.8% [cytotoxic]
C(C#CCCCCCCCCC[n+]1ccccc1)#CCCCCCCCCC[n+]1ccccc1,active: 3.66 µM and active: 8.2 µM,
CC(=O)c1ccc(N2CCC(c3cc(-c4ccc(Cl)cc4)n[nH]3)CC2)c([N+](=O)[O-])c1,"inconclusive [cytotoxic, single point]",
C=CCNC(=O)NC(=O)COC(=O)/C(C#N)=C/c1ccc(OC)cc1,"inconclusive [rising, single point]",
Cn1c(/C=C/c2ccc(Cl)cc2)c([N+](=O)[O-])c(=O)n(C)c1=O,"inconclusive [cytotoxic, single point]",
O=C1CCN(C(=O)c2ccccc2)C2CCCCC12 (centres undefined),,inactive: 9.04%
CCn1cc(C2CC(=O)NC2=O)c2ccccc21 (centres undefined),,inactive: 1.75%

SMILES,Potency,"activity, negative = less viability"
COc1cc(CNc2ncc(-c3ccc(Br)cc3)n2C)cc(OC)c1OC,,inactive: -1.22%
Cc1ccn2c(NC3CCCCC3)c(-c3cccc(-c4cccc(Cl)c4)c3)nc2c1,"inconclusive [cytotoxic, single point]",
COc1cc(OC)c(OC)cc1NC(=O)CC1COc2ccccc2O1 (centres undefined),,inactive: 4.75%
Cc1c(C(=O)Nc2cccnc2)oc2ccc(Br)cc12,"inconclusive [cytotoxic, partial curve]",
O=C(O)c1ccc(NC(=O)c2cn(-c3ccccc3)nc2-c2ccc(F)cc2)cc1,,inactive: -8.69%
CC(C)CN1C(=O)c2ccc(NC(=O)c3ccco3)cc2C1=O,,inactive: -0.661%
COc1cccc(C2NC(=O)NC(C)=C2C(=O)Nc2cccc(C)c2C)c1 (centres undefined),,inactive: -1.19%
C1COC(NC(C2CC2)C2CC2)=N1,"inconclusive [cytotoxic, partial curve]",
Cc1ccc(-n2nnc3c(SCC(=O)NCc4ccco4)ncnc32)cc1,"inconclusive [cytotoxic, single point]",
O=C(/C=C/c1ccco1)NCC1OCCc2ccccc21 (centres undefined),"inconclusive [cytotoxic, single point]",
Cc1cc(Cl)ccc1OCCCC(=O)NC1CCN(C)CC1,"inconclusive [cytotoxic, single point]",
O=C(c1ccc(Br)cc1)c1cc([N+](=O)[O-])ccc1N1CCCCC1,active: 1.84 µM,
Cc1cccc(N2CCN(S(=O)(=O)c3ccc4c(c3)NC(=O)C(C)S4)CC2)c1C (centres undefined),"inconclusive [cytotoxic, single point]",
Oc1cccc(Nc2c3ccccc3nc3ccccc23)c1,"inconclusive [cytotoxic, single point]",
Cc1cc(C)n(-c2nc3c(c(=O)[nH]c(=O)n3C)n2CCc2ccccc2)n1,"inconclusive [cytotoxic, single point]",
COc1ccc(CCn2c(N)c(C(=O)NCc3ccco3)c3nc4ccccc4nc32)cc1,"inconclusive [cytotoxic, partial curve]",
CCOc1ccc(CCN2C(=S)N([C@@H](Cc3ccc(O)cc3)CN3CCC[C@@H]3CN3C(=S)NC[C@@H]3Cc3ccc(O)cc3)C[C@@H]2Cc2ccc(O)cc2)cc1,active: 25.9 µM,
CCOC(=O)Cc1csc(NC(=O)CCc2ccccc2)n1,,inactive: 4.22%
CN1CCN(c2nc(-c3cccnc3)nc3scc(-c4ccccc4)c23)CC1,,inconclusive: -24.8% [cytotoxic]
C=C1C(O)[C@@H]2O[C@]3(CC[C@H](/C=C/C(C)[C@@H]4CC(C)=CC5(O[C@H](C[C@@](C)(O)CO)CCC5O)O4)O3)CC[C@H]2O[C@@H]1C(O)CC(C)[C@H]1OC2(CCCCO2)CCC1C (some centres undefined),active: 1.16 µM,
O=C(CN(Cc1ccccc1)S(=O)(=O)c1ccc2c(c1)OCCO2)N/N=C/c1ccc(F)cc1,"inconclusive [cytotoxic, partial curve]",
COc1ccc(S[C@@H](CCN2CC[C@H](NC(=O)OCc3ccccc3)CCC2=O)c2ccccc2)cc1,"inconclusive [cytotoxic, single point]",
O=C(Nc1ccc(N2CCOCC2)c(Cl)c1)c1cc2ccccc2o1,"inconclusive [cytotoxic, single point]",

SMILES,Potency,"activity, negative = less viability"
CCOC(=O)Cc1c[nH]c2ccc([N+](=O)[O-])cc12,,inactive: 1.22%
COc1ccc(C2CC(c3ccc4ccccc4c3)=NN2C(=O)COC(=O)C2CCC(=O)N2)cc1 (centres undefined),"inconclusive [cytotoxic, single point]",
Cc1c(C=O)c(C=O)c(C)n1Cc1ccccc1,active: 8.2 µM,
c1ccc(C2=Nc3c(ccc4ccccc34)C(c3ccncc3)=NN2)cc1,"inconclusive [cytotoxic, partial curve]",
Cc1ccc(S(=O)(=O)Nc2ccc(S(=O)(=O)Nc3cc(C)nc(C)n3)cc2)cc1,,inactive: 7.2%
Cc1cc([N+](=O)[O-])cc(/C=N/n2c(C)nc3ccccc3c2=O)c1O,"inconclusive [cytotoxic, single point]",
O=C(O)CCC(=O)NC(c1ccccc1)c1ccccc1,,inactive: -4.49%
CCCCC(=O)Oc1c(S(=O)(=O)c2ccc(C)cc2)c(C)nn1C(C)(C)C,"inconclusive [cytotoxic, single point]",
O=C(NCc1ccccc1)C1Cc2c(-c3ccc(Cl)cc3)ccnc2O1 (centres undefined),"inconclusive [cytotoxic, full curve]",
Cn1nnc2cc(NC(=O)Nc3cccc(Cl)c3)ccc21,,inconclusive: 7.28%
COc1c(C)cc(C(O)c2ncc(-c3ccccc3Cl)[nH]2)cc1C (centres undefined),"inconclusive [cytotoxic, single point]",
Cc1cc(C(=O)CCl)c(C)n1-c1cccc(S(=O)(=O)N2CCOCC2)c1,active: 23.1 µM,
Cc1ccc2[nH]c3c(c2c1)CN(C(=O)CN1CCN(c2cccc(C)c2C)CC1)CC3,"inconclusive [cytotoxic, single point]",
Nc1ccc(C(=O)N/N=C/c2cn(Cc3cccc(F)c3)c3ccccc23)cc1,,inactive: -4.72%
CCCC1=Nc2cc(C(=O)NCCCN3CCN(C)CC3)ccc2Sc2ccccc21,"inconclusive [cytotoxic, partial curve]",
c1ccc2nc(N3CCCC3)c(N3CCCCC3)nc2c1,,inactive: -4.14%
Nc1c(N(CCC2=CCCCC2)C(=O)COc2ccc(F)cc2)c(=O)[nH]c(=O)n1Cc1ccccc1,"inconclusive [cytotoxic, single point]",
COc1ccc(CNc2cccc3[nH]c(C(F)(F)F)nc23)cc1,,inconclusive: -31.3% [cytotoxic]
CC(C)OP(=O)(c1ccc(N(C)C)cc1)C(O)c1cccnc1 (centres undefined),,inactive: 1.24%
Cn1nc(C(=O)Nc2ccccc2N2CCOCC2)ccc1=O,,inactive: 2.84%
CCCCn1nnnc1C(c1cccs1)N1CCN(C/C=C/c2ccccc2)CC1 (centres undefined),"inconclusive [cytotoxic, single point]",
CCOC(=O)Cc1csc(NC(=O)/C=C/c2cccc(Br)c2)n1,"inconclusive [cytotoxic, partial curve]",
O=C(Nc1cccc(Cl)c1)c1cc(S(=O)(=O)NCCc2ccc(Cl)cc2)ccc1F,"inconclusive [cytotoxic, single point]",
